Source: the RNAGym collection of RNA variant scans (doi:10.1101/gad.245936.114)
This sample is rich in variants without activity.

B1: tRNA (parent)
chain: CUCUCGGUAGCCAAGUUGGUUUAAGGCGCAAGACUUUAAUUUAUCACUACGAAAUCUUGAGAUCGGGCGUUCGACUCGCCCCCGGGAGAUUUUUUCCUCGAGCAA

Variants of: B1
Assay: nonsense suppression (GFP-seq) (ratio to wild type); higher = more function; SUP4oc tRNA, yeast GFP reporter sort-seq
Method in brief: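 Each variant's nonsense suppression (GFPSEQ) is a cell-share-weighted bin median GFP/RFP relative to the unmutated parent tRNA. Yeast with genome-integrated tRNA variants from a ~3% random-mutation library, a galactose-driven GFP ochre reporter and RFP were grown in raffinose/galactose medium with 80 mg/L adenine, then sorted into GFP/RFP bins for Illumina sequencing. Variants needed ≥100 reads and ≥30 cells.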

Variant	nonsense suppression
G59A A62U C75A	≤ 0.026
G59A A87C	≤ 0.026
G59A A89G	≤ 0.026
G59A C64A	≤ 0.026
G59A C64G	≤ 0.026
G59A C68A	≤ 0.026
G59A C72U C79G	≤ 0.026
G59A C75G C80G	≤ 0.026
G59A C77U	≤ 0.026
G59A C81A	≤ 0.026
G59A C82G G88A	≤ 0.026
G59A G61A A87C	≤ 0.026
G59A G61C G65A G67A G78A A89C	≤ 0.026
G59A G66C	≤ 0.026
G59A G66C A87U	≤ 0.026
G59A G67C	≤ 0.026
G59A G69A U70C	≤ 0.026
G59A G73C	≤ 0.026
G59A G73C C82A	≤ 0.026
G59A G84A G85C	≤ 0.026
G59A G85C	≤ 0.026
G59A G88C	≤ 0.026
G59A U71C	≤ 0.026
G59A U76A G78A G86C	≤ 0.026

Variant	nonsense suppression
G59A U76A G88U	≤ 0.026
G59A U76G C77A	≤ 0.026
G59C A62C U71C C82G	≤ 0.026
G59C A87C	≤ 0.026
G59C C64A G65U U70G G78A C81G A89U	≤ 0.026
G59C C64G G65U	≤ 0.026
G59C C72A G78C G85C	≤ 0.026
G59C C72A G85U	≤ 0.026
G59C C75A	≤ 0.026
G59C C75G U76G C79A C83A	≤ 0.026
G59C C77A	≤ 0.026
G59C C79G	≤ 0.026
G59C G65A	≤ 0.026
G59C G66A C68G	≤ 0.026
G59C G66A C79G	≤ 0.026
G59C G66U U70G	≤ 0.026
G59C G84A	≤ 0.026
G59C G84C	≤ 0.026
G59C U76G	≤ 0.026
G59U A60G G61A A62U	≤ 0.026
G59U A60G G65C C72U G78U	≤ 0.026
G59U A60U C81A	≤ 0.026
G59U A62C A89G	≤ 0.026
G59U A87U	≤ 0.026

Variant	nonsense suppression
G59U C64A G73C C77A	≤ 0.026
G59U C64A U70C	≤ 0.026
G59U C72U	≤ 0.026
G59U C79U	≤ 0.026
G59U C82G	≤ 0.026
G59U C83U	≤ 0.026
G59U G61A	≤ 0.026
G59U G61C	≤ 0.026
G59U G61U	≤ 0.026
G59U G61U G85U	≤ 0.026
G59U G66C U71C	≤ 0.026
G59U G67U	≤ 0.026
G59U G73C A89C	≤ 0.026
G59U G88A	≤ 0.026
G59U U63C	0.868
G59U U70A	≤ 0.026
G59U U70C G78A	≤ 0.026
G59U U76G G86C	≤ 0.026
A60C A62C A87G	≤ 0.026
A60C A62C U63A	≤ 0.026
A60C A62U	0.0785
A60C A74C C75A	≤ 0.026
A60C A89C	≤ 0.026
A60C C64A C83A	≤ 0.026

Variant	nonsense suppression
A60C C64U G66A	≤ 0.026
A60C C68A G88C	≤ 0.026
A60C C72G	≤ 0.026
A60C C79A	≤ 0.026
A60C C81A	≤ 0.026
A60C C81A A87U	≤ 0.026
A60C G61U	0.768
A60C G66C	≤ 0.026
A60C G66U	≤ 0.026
A60C G67A	≤ 0.026
A60C G67C G84A	≤ 0.026
A60C G69U U70G C83A	≤ 0.026
A60C G73U	0.049
A60C G86C	≤ 0.026
A60C G88U	≤ 0.026
A60C U71G A74C C77U	≤ 0.026
A60G C64G	≤ 0.026
A60G C79G	≤ 0.026
A60G C82A	0.0331
A60G G61A C72A	≤ 0.026
A60G G61C U71G C81G	≤ 0.026
A60G G66A C83G	≤ 0.026
A60G G67A G69U A74G U76C	≤ 0.026
A60G G67U C83G	≤ 0.026

Variant	nonsense suppression
A60G G69A	0.0526
A60G G69U C79G	≤ 0.026
A60G G73C	≤ 0.026
A60G G84A	0.269
A60G G85A	1.16
A60G G86U	0.0427
A60G U63A	0.163
A60U A62G	0.112
A60U C64U	≤ 0.026
A60U C72G C77G	≤ 0.026
A60U C81U	0.818
A60U C82A	≤ 0.026
A60U C83U G85C	≤ 0.026
A60U G65C U71C	≤ 0.026
A60U G67C	≤ 0.026
A60U G85C	≤ 0.026
A60U G86A	≤ 0.026
A60U U63G	0.789
A60U U63G A74U C83U	≤ 0.026
A60U U71A	≤ 0.026
A60U U71G	≤ 0.026
A60U U76C	1.05
G61A	0.853
G61A A62U A87G	≤ 0.026

Variant	nonsense suppression
G61A A87C	≤ 0.026
G61A A87U	0.181
G61A A89C	0.0288
G61A C64G	0.0404
G61A C68U	0.609
G61A C72U	0.0666
G61A C75A	0.842
G61A C75A C80A	≤ 0.026
G61A C75U	0.923
G61A C77G	≤ 0.026
G61A C79G	≤ 0.026
G61A C79U	0.209
G61A C83A	0.0363
G61A C83G	≤ 0.026
G61A G65A	0.127
G61A G65C	≤ 0.026
G61A G65C U71A C80U	≤ 0.026
G61A G66C	≤ 0.026
G61A G67A G73C	≤ 0.026
G61A G67C	≤ 0.026
G61A G69U U76G G85A	≤ 0.026
G61A G73A	0.202
G61A G78U	0.0402
G61A G84C	0.0752

Variant	nonsense suppression
G61A U70C C77G	≤ 0.026
G61A U71G U76A	≤ 0.026
G61A U76C	0.775
G61C	1.14
G61C A62C	≤ 0.026
G61C A74U C81U G86U	≤ 0.026
G61C C64A	≤ 0.026
G61C C64G C75G	≤ 0.026
G61C C68U A74C	≤ 0.026
G61C G65A U71G	≤ 0.026
G61C G67A	0.0647
G61C G67U A89U	≤ 0.026
G61C G69U A74C	≤ 0.026
G61C G73A	0.213
G61C G78A C80G	≤ 0.026
G61C G84U	0.199
G61C G88U	0.0792
G61C U63A G65U	≤ 0.026
G61C U63C	0.196
G61C U63G	0.12
G61C U71C C72U	≤ 0.026
G61C U71C G86C	≤ 0.026
G61U	1.03
